Source: a collection of fitness landscapes (doi:10.1016/j.celrep.2020.107928)
Whole data set: some 81,000 sequences, median “one-hybrid fitness for binding parS DNA” near -0.17, cut for the highest 2% near 0.51. The list shows a part of the results.

B1: Caulobacter ParB omega fusion; a variant is named by its letters at X, in order, B8GW30 (parent)
chain: MESVVVGEPGMSEGRRGLGRGLSALLGEVDAAPAQAPGEQLGGSREAPIEILQRNPDQPRRTFREEDLEDLSNSIREKGVLQPILVRPSPDTAGEYQIVAGERAWRAAQRAGLKTVPIMVRELDDLAVLEIGIIENVQRADLNVLEEALSYKVLMEKFERTQENIAQTIGKSXSHVANXMRLLXLPDEVQSYLVSGELTAXHARAIAAAADPVALAKQIIEGGLSVRETEALARKAPNLSAGKSKGGRPPRVKDTDTQALESDLSSVLGLDVSIDHRGSTGTLTITYATLEQLDDLCNRLTRGI

Variants of: B1
Test: one-hybrid fitness for binding parS DNA (scaled: cognate 1, non-cognate 0); higher = stronger binding
Conditions: with parS DNA site
Outline: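 On M9-minus-histidine containing 0.1 mM IPTG and 5 mM 3-AT, E. coli USO cells with a HIS3 reporter, site 19 bp from the promoter, grew 48 hours at 37°C to select Caulobacter ParB libraries randomised at four specificity codons. Plasmids from before and after were Illumina-sequenced, with three replicate libraries pooled and variants under 10 reads left out. Fitness is the log change in variant-to-wild-type read ratio, rescaled against cognate and non-cognate.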

| Variant | one-hybrid fitness for binding parS DNA |
| --- | --- |
| CGSS | ≤ 0.2 |
| HHVC | ≤ 0.2 |
| GWCR | ≤ 0.2 |
| QKNS | ≤ 0.2 |
| IWGR | ≤ 0.2 |
| QTNS | ≤ 0.2 |
| AHTS | ≤ 0.2 |
| ETHG | ≤ 0.2 |
| LLLS | ≤ 0.2 |
| SAPI | ≤ 0.2 |
| TATM | ≤ 0.2 |
| ADRI | ≤ 0.2 |
| DGVL | ≤ 0.2 |
| ESSR | ≤ 0.2 |
| HNGR | ≤ 0.2 |
| WYAR | ≤ 0.2 |
| DGAA | ≤ 0.2 |
| MSDT | ≤ 0.2 |
| WYKS | ≤ 0.2 |
| NDAC | ≤ 0.2 |
| EASE | ≤ 0.2 |
| SWHM | ≤ 0.2 |
| RYDL | ≤ 0.2 |
| SWAI | ≤ 0.2 |
| RTWM | 0.381 |
| KCTH | ≤ 0.2 |

| Variant | one-hybrid fitness for binding parS DNA |
| --- | --- |
| WRDE | ≤ 0.2 |
| NHWI | ≤ 0.2 |
| GVRN | ≤ 0.2 |
| ISNV | ≤ 0.2 |
| VTEN | ≤ 0.2 |
| VKCE | ≤ 0.2 |
| RCNH | 0.242 |
| RTDG | 0.935 |
| GVGL | ≤ 0.2 |
| EVSC | ≤ 0.2 |
| KSES | ≤ 0.2 |
| DSPY | ≤ 0.2 |
| RVKH | ≤ 0.2 |
| GFRR | ≤ 0.2 |
| PAWS | ≤ 0.2 |
| YGHR | ≤ 0.2 |
| SDIL | ≤ 0.2 |
| PVGY | ≤ 0.2 |
| CWYS | ≤ 0.2 |
| WYNE | ≤ 0.2 |
| WMST | ≤ 0.2 |
| KKIT | ≤ 0.2 |
| GIES | ≤ 0.2 |
| KPKL | ≤ 0.2 |
| MHTG | ≤ 0.2 |
| HCVY | ≤ 0.2 |

| Variant | one-hybrid fitness for binding parS DNA |
| --- | --- |
| QKCL | ≤ 0.2 |
| NCKR | ≤ 0.2 |
| PVVY | ≤ 0.2 |
| MGVR | ≤ 0.2 |
| LRRW | ≤ 0.2 |
| MVGR | ≤ 0.2 |
| TSNF | ≤ 0.2 |
| HKDY | ≤ 0.2 |
| SKTM | ≤ 0.2 |
| SSLE | ≤ 0.2 |
| VHWR | ≤ 0.2 |
| WPPS | ≤ 0.2 |
| LKGR | ≤ 0.2 |
| TTSF | ≤ 0.2 |
| RSIY | 0.305 |
| SHAD | ≤ 0.2 |
| GPAE | ≤ 0.2 |
| GPSM | ≤ 0.2 |
| CRSY | ≤ 0.2 |
| MMMG | ≤ 0.2 |
| DAHG | ≤ 0.2 |
| QCTP | ≤ 0.2 |
| RAHI | ≤ 0.2 |
| ALPP | ≤ 0.2 |
